Experimental data from patent US10954269B2, “Anti-inflammatory tripeptides” (Dr. August Wolff Gmbh & Co. KG Arzneimittel, priority 2013, dated 2021).
At least one peptide structure holds a part that was inferred or is arguable (an end, a ring closure or a residue). Some compounds share one wording; it may come from a single statement.

Assays:
[1] = test system: human keratinocyte cell line (HaCaT); assay: Cytokine secretion on protein level in activated human keratinocyte cell line HaCaT (13-plex FACS / Luminex, supernatant); assay type: cell-based; details: for IL-1 cytokine concentration / IL-2 cytokine concentration / IL-4 cytokine concentration / IL-5 cytokine concentration / IL-6 cytokine concentration / IL-9 cytokine concentration / IL-10 cytokine concentration / IL-13 cytokine concentration / IL-17 cytokine concentration / TNF-α cytokine concentration / IL-12p70 cytokine concentration / IL-22 cytokine concentration / IFN-γ cytokine concentration: 10^−9M; for IL-12p70 cytokine concentration / IL-22 cytokine concentration: excluded from the final assessment
Protocol: (§1) Primary T-cells were isolated from peripheral blood from healthy volunteers and from secondary lymphatic organs from naïve C57BL/6 mice, respectively. The cells were stimulated with phorbol-12-myristate-13-acetate (PMA)/Ionomycin and interferon-gamma (IFN-γ), respectively, for 48 h to activate the cells. The activated cells release pro-inflammatory cytokines. In parallel a human (HaCaT) keratinocyte cell line was activated with PMA/Ionomycin and IFN-γ, respectively, too. […] At the same time release of anti-inflammatory IL-10 was inhibited. Two days after addition of PMA/Ionomycin and IFN-γ, respectively, the induction of IL-1 secretion was determined in the supernatant for proving that the cells are activated. […] The anti-inflammatory properties of the tripeptides were determined 48 h and 72 h following stimulation. A 13-plex-system based FACS analysis was used for showing the reduced secretion of pro-inflammatory cytokines in the supernatant. Data for IL-1, IL-2, IL-6, IL-12p70 IL-17, IFN-γ and TNF-α are considered to be most relevant. Thus, analysis of the anti-inflammatory properties of the tripeptides is preferably based on the results obtained for these analytes. […] Using this method the gene expression of pro-inflammatory markers like IL-6, IL-17, IFN-γ and TNF-α was determined.
In a third experiment murine and human T cells and HaCaT cells were stimulated with PMA/Ionomycin and treated with Examples 14, 15, 16 and 17 at 10^−7 M, 10^−9 M and 10^−11 M. Cytokine concentrations (IFN-γ, IL-17 and IL-10 for T cells and IFN-γ for HaCat) were assessed in the supernatants using the Luminex technology. Expression of genes coding for Il-1β, IL-6 and TNF-α was determined. […] Moreover, concentrations of pro-inflammatory cytokines IFN-γ and IL-17 was reduced in the supernatants whereas the concentration of anti-inflammatory cytokine IL-10 was increased. […]
For the biological assay two human cell lines of different origin were chosen to allow for translation of the results obtained. A HaCaT cell is a cell type belonging to an immortal human keratinocyte line used in scientific research. Its use in research allows for the characterization of human keratinocyte using a model that is reproducible and representing a human epithelial cell line. In contrast human T-lymphocytes (T-cells) are a type of lymphocyte (itself a type of white blood cell) that play a central role in cell-mediated inflammation/immunity.

[2] = test system: primary murine T-cells; assay: Cytokine secretion on protein level in activated primary murine T-cells (13-plex FACS / Luminex, supernatant); assay type: cell-based, C57BL/6 mice
Protocol: as §1
(§2) In a third experiment murine and human T cells and HaCaT cells were stimulated with PMA/Ionomycin and treated with Examples 14, 15, 16 and 17 at 10^−7 M, 10^−9 M and 10^−11 M. Cytokine concentrations (IFN-γ, IL-17 and IL-10 for T cells and IFN-γ for HaCat) were assessed in the supernatants using the Luminex technology. Expression of genes coding for Il-1β, IL-6 and TNF-α was determined. […] Moreover, concentrations of pro-inflammatory cytokines IFN-γ and IL-17 was reduced in the supernatants whereas the concentration of anti-inflammatory cytokine IL-10 was increased.
The anti-inflammatory and immunomodulatory effects of selected examples of the present invention were compared with common immunosuppressants. Thus, cells activated with PMA/Ionomycin and IFN-γ, respectively, were stimulated with MMF or dexamethasone. Following stimulation the secretion of pro-inflammatory cytokines was analyzed on protein and gene level (Table 9 and FIGS. 4-6).

[3] = test system: primary human T cells; assay: Gene expression of pro-inflammatory cytokines (RT-qPCR) in primary human T cells; assay type: cell-based
Excerpt: Cells were activated with PMA/Ionomycin and treated with PBS, α-MSH, K(D)PT and Examples 3, 8 and 9, respectively, at a concentration of 10^−9 M. Values are normalized to β-actin and are shown relative to the gene expression in PBS-stimulated cells.
as §1, §2

[4] = HaCaT stimulated with PMA/Ionomycin
[5] = primary murine T-cells stimulated with IFN-γ, 10^−9M
[6] = primary murine T-cells stimulated with PBS, 10^−9M
[7] = primary murine T-cells stimulated with PMA/Ionomycin, 10^−9M
[8] = primary murine T-cells stimulated with PMA/Ionomycin, 10^−9M, 1:10 dilution of the supernatants

C[C@@H](O)[C@@H](C(=O)O)N(C)C(=O)[C@H]1CCCN1C(=O)[C@H](CCCCN)N(C)C [Example 3, N^α,N^α-dimethyl-(L)-Lys-(D)-Pro-N^α-methyl-(L)-Thr-OH]
IL-1 cytokine concentration ([1]; HaCaT stimulated with IFN-γ): 239.94 pg/mL
IL-2 cytokine concentration ([1]; HaCaT stimulated with IFN-γ): 130.32 pg/mL
IL-4 cytokine concentration ([1]; HaCaT stimulated with IFN-γ): 80.39 pg/mL
IL-5 cytokine concentration ([1]; HaCaT stimulated with IFN-γ): 111.33 pg/mL
IL-6 cytokine concentration ([1]; HaCaT stimulated with IFN-γ): 606.47 pg/mL
IL-9 cytokine concentration ([1]; HaCaT stimulated with IFN-γ): 98.44 pg/mL
IL-10 cytokine concentration ([1]; HaCaT stimulated with IFN-γ): 107.71 pg/mL
IL-13 cytokine concentration ([1]; HaCaT stimulated with IFN-γ): 58.79 pg/mL
IL-17 cytokine concentration ([1]; HaCaT stimulated with IFN-γ): 642.41 pg/mL
TNF-α cytokine concentration ([1]; HaCaT stimulated with IFN-γ): 100.94 pg/mL
IL-12p70 cytokine concentration ([1]; HaCaT stimulated with IFN-γ): 1843.69 pg/mL
IL-22 cytokine concentration ([1]; HaCaT stimulated with IFN-γ): 19411 pg/mL
IFN-γ cytokine concentration ([1]; HaCaT stimulated with PBS): 389.43 pg/mL
IL-1 cytokine concentration ([1]; HaCaT stimulated with PBS): 228.09 pg/mL
IL-2 cytokine concentration ([1]; HaCaT stimulated with PBS): 163.98 pg/mL
IL-4 cytokine concentration ([1]; HaCaT stimulated with PBS): 71.68 pg/mL
IL-5 cytokine concentration ([1]; HaCaT stimulated with PBS): 154.73 pg/mL
IL-6 cytokine concentration ([1]; HaCaT stimulated with PBS): 85.65 pg/mL
IL-9 cytokine concentration ([1]; HaCaT stimulated with PBS): 130.34 pg/mL
IL-10 cytokine concentration ([1]; HaCaT stimulated with PBS): 46.71 pg/mL
IL-13 cytokine concentration ([1]; HaCaT stimulated with PBS): 56.84 pg/mL
IL-17 cytokine concentration ([1]; HaCaT stimulated with PBS): 585.63 pg/mL
TNF-α cytokine concentration ([1]; HaCaT stimulated with PBS): 74.7 pg/mL
IL-12p70 cytokine concentration ([1]; HaCaT stimulated with PBS): 1910.22 pg/mL
IL-22 cytokine concentration ([1]; HaCaT stimulated with PBS): 16936.8 pg/mL
IFN-γ cytokine concentration [1, 4]: 720.85 pg/mL
IL-1 cytokine concentration [1, 4]: 197.77 pg/mL
IL-2 cytokine concentration [1, 4]: 65.83 pg/mL
IL-4 cytokine concentration [1, 4]: 60.13 pg/mL
IL-5 cytokine concentration [1, 4]: 150.8 pg/mL
IL-6 cytokine concentration [1, 4]: 128.88 pg/mL
IL-9 cytokine concentration [1, 4]: 144.76 pg/mL
IL-10 cytokine concentration [1, 4]: 187.91 pg/mL
IL-13 cytokine concentration [1, 4]: 61.45 pg/mL
IL-17 cytokine concentration [1, 4]: 397.57 pg/mL
TNF-α cytokine concentration [1, 4]: 88.62 pg/mL
IL-12p70 cytokine concentration [1, 4]: 0 pg/mL
IL-22 cytokine concentration [1, 4]: 17177.7 pg/mL
secretion / expression of pro-inflammatory cytokines (supernatant) ([1]; activated human keratinocytes): stronger anti-inflammatory effects
secretion of anti-inflammatory cytokine IL-10 ([1]; keratinocytes): induction
secretion / expression of pro-inflammatory cytokines (supernatant) ([2]; activated primary murine T-cells): stronger anti-inflammatory effects
IL-1 cytokine concentration [2, 5]: 0 pg/mL
IL-2 cytokine concentration [2, 5]: 0 pg/mL
IL-4 cytokine concentration [2, 5]: 0 pg/mL
IL-5 cytokine concentration [2, 5]: 0 pg/mL
IL-6 cytokine concentration [2, 5]: 0 pg/mL
IL-10 cytokine concentration [2, 5]: 68.31 pg/mL
IL-13 cytokine concentration [2, 5]: 0 pg/mL
IL-17 cytokine concentration [2, 5]: 0 pg/mL
IL-21 cytokine concentration [2, 5]: 0 pg/mL
IL-22 cytokine concentration [2, 5]: 0 pg/mL
IL-27 cytokine concentration [2, 5]: 555.75 pg/mL
TNF-α cytokine concentration [2, 5]: 0 pg/mL
IFN-γ cytokine concentration [2, 6]: 0 pg/mL
IL-1 cytokine concentration [2, 6]: 14.89 pg/mL
IL-2 cytokine concentration [2, 6]: 0 pg/mL
IL-4 cytokine concentration [2, 6]: 0 pg/mL
IL-5 cytokine concentration [2, 6]: 0 pg/mL
IL-6 cytokine concentration [2, 6]: 0 pg/mL
IL-10 cytokine concentration [2, 6]: 40.84 pg/mL
IL-13 cytokine concentration [2, 6]: 0 pg/mL
IL-17 cytokine concentration [2, 6]: 0 pg/mL
IL-21 cytokine concentration [2, 6]: 0 pg/mL
IL-22 cytokine concentration [2, 6]: 0 pg/mL
IL-27 cytokine concentration [2, 6]: 268.47 pg/mL
TNF-α cytokine concentration [2, 6]: 0 pg/mL
IL-1 cytokine concentration [2, 7]: 49.31 pg/mL
IL-4 cytokine concentration [2, 7]: 82.28 pg/mL
IL-5 cytokine concentration [2, 7]: 377 pg/mL
IL-6 cytokine concentration [2, 7]: 218.74 pg/mL
IL-10 cytokine concentration [2, 7]: 270.65 pg/mL
IL-13 cytokine concentration [2, 7]: 6629.52 pg/mL
IL-17 cytokine concentration [2, 7]: 535.72 pg/mL
IL-21 cytokine concentration [2, 7]: 0 pg/mL
IL-22 cytokine concentration [2, 7]: 554.05 pg/mL
IL-27 cytokine concentration [2, 7]: 0 pg/mL
TNF-α cytokine concentration [2, 7]: 544.83 pg/mL
IFN-γ* cytokine concentration [2, 8]: 4716.4 pg/mL
IL-2* cytokine concentration [2, 8]: 3973.68 pg/mL
mRNA expression of IL-6, IL-17, IFN-γ and TNF-α ([3]; human T cells): reduced
immunomodulatory activities relative to positive control K(D)PT ([3]; human and murine T cells): comparable to K(D)PT
